{"source": "the RNAGym collection of RNA variant scans (doi:10.7554/elife.90254)", "parents": {"B1": {"name": "LINE1-mini (parent)", "chain": "GGCAGAGCUCAACACAGCGUGGCAAAGUGGCUGUGGCUAGACUGCC"}}, "note": "Read counts are not given, so values of variants with three or more changes are uncertain."}
{"variants_of": "B1", "experiment": "self-cleavage, relative activity (ratio to wild type); higher = more cleavage; in vitro, sequencing; the parent is a self-cleaving ribozyme"}
{"variant": "G5A G21C C23G A39G G44A", "self-cleavage": 0.07}
{"variant": "G17A G30U G35U", "self-cleavage": 0.04}
{"variant": "A14U A24U G29U C31A C45G", "self-cleavage": 0.04}
{"variant": "A11U U28C C31U", "self-cleavage": 0.01}
{"variant": "C13U A26C G29U C31U G33C", "self-cleavage": 0.05}
{"variant": "U9G G22A A26G", "self-cleavage": 0.03}
{"variant": "G2U A26U C42U", "self-cleavage": 0.01}
{"variant": "A11C C23U G40A", "self-cleavage": 0.04}
{"variant": "G5U C8G U34A U43C", "self-cleavage": 0}
{"variant": "C3U A14G G27A", "self-cleavage": 0.69}
{"variant": "U9C A16U G17A", "self-cleavage": 0.02}
{"variant": "A4G U9G G21U", "self-cleavage": 0.04}
{"variant": "G33U G36A U38C A39U", "self-cleavage": 0.01}
{"variant": "G1A C18G C37A", "self-cleavage": 0.04}
{"variant": "C3U G17A C31G", "self-cleavage": 0.05}
{"variant": "C15A G22U A41C", "self-cleavage": 0.05}
{"variant": "G2C C3G U9C C23A G29U C42U U43C C45A", "self-cleavage": 0.01}
{"variant": "G5U G7U A11C G19A C37A", "self-cleavage": 0.02}
{"variant": "C13U G33C G40A G44U", "self-cleavage": 0.05}
{"variant": "A6G C15A G17C C37U", "self-cleavage": 0.03}
{"variant": "U28A G33U C46U", "self-cleavage": 0.28}
{"variant": "G5A U20A C42A", "self-cleavage": 0.2}
{"variant": "C8A C10A A12C G33U G35U", "self-cleavage": 0}
{"variant": "A11U G35U G36U G44U", "self-cleavage": 0.01}
{"variant": "G5U C13G U20A", "self-cleavage": 0.01}
{"variant": "U9G A12G C13U", "self-cleavage": 0.01}
{"variant": "C8G A25C A26G G29U A39U", "self-cleavage": 0.02}
{"variant": "A12U A25U U28A G29A U32A", "self-cleavage": 0}
{"variant": "A4C C8U C23G G36U", "self-cleavage": 0.13}
{"variant": "U9G C10U C18G", "self-cleavage": 0.02}
{"variant": "G5C G19C G21C A26C", "self-cleavage": 0}
{"variant": "A12G C13U G35U", "self-cleavage": 0.02}
{"variant": "A6G G27U G29C C46U", "self-cleavage": 0.08}
{"variant": "G1A C8U G35C G44U", "self-cleavage": 0.63}
{"variant": "U9A A16G C23U A24U A25C U34G", "self-cleavage": 0.06}
{"variant": "G19C U34A C42G", "self-cleavage": 0.04}
{"variant": "A16C C18A U20A U43G C45G", "self-cleavage": 0}
{"variant": "C10A C23A A26U", "self-cleavage": 0.04}
{"variant": "G27U G29C U43C", "self-cleavage": 0.01}
{"variant": "G19U U34G G40C", "self-cleavage": 0.01}
{"variant": "C3G A14G G27U G44A", "self-cleavage": 0.31}
{"variant": "C10A C31A G33C", "self-cleavage": 0}
{"variant": "U9A U20G C31U", "self-cleavage": 0.13}
{"variant": "G17C C23A A24U U34G U43A", "self-cleavage": 0.05}
{"variant": "G1C C10U A25C G27C G40A", "self-cleavage": 0}
{"variant": "C3G A12G C13U C15A C31A", "self-cleavage": 0.02}
{"variant": "C3G A12C C15G C23U C31A C45U", "self-cleavage": 0.01}
{"variant": "U20C G29A U32G G33A", "self-cleavage": 0.08}
{"variant": "A4C A16C G19C", "self-cleavage": 0.08}
{"variant": "C18U G22A G36U C37G", "self-cleavage": 0}
{"variant": "G2U C3A C10A G36A", "self-cleavage": 0.03}
{"variant": "G17U G19C C37G C46A", "self-cleavage": 0.02}
{"variant": "G17A C42A C46U", "self-cleavage": 0.01}
{"variant": "C13A C15A G22U", "self-cleavage": 0.56}
{"variant": "A4G C10A A16G C37U C42A U43A", "self-cleavage": 0}
{"variant": "G19U A25G G29A C37A A39C", "self-cleavage": 0.05}
{"variant": "G2C A12G G33C A41U C46G", "self-cleavage": 0.03}
{"variant": "A4C G7U C8A C10A G40U", "self-cleavage": 0.05}
{"variant": "G21U C23U A24G", "self-cleavage": 1.05}
{"variant": "G1A C10A G19U G29U", "self-cleavage": 0.09}
{"variant": "G7A G29A C45A", "self-cleavage": 0.01}
{"variant": "A12G C13A C45G", "self-cleavage": 0.03}
{"variant": "C10A C13A A24U A41G", "self-cleavage": 0.01}
{"variant": "U9G C13G G22U G40A", "self-cleavage": 0.02}
{"variant": "A4U G29U U38C", "self-cleavage": 0.09}
{"variant": "G5A U9C U20G G44C", "self-cleavage": 0.02}
{"variant": "C10G A25U U34C", "self-cleavage": 0.06}
{"variant": "G1U A4U A26C C37A", "self-cleavage": 0.12}
{"variant": "G30A G36A A41U", "self-cleavage": 0.07}
{"variant": "G7C A24C G29C G40U G44C C45G C46A", "self-cleavage": 0.01}
{"variant": "G17U U20C A25C U32A", "self-cleavage": 0.04}
{"variant": "G2C C13A C23U", "self-cleavage": 0.13}
{"variant": "C3U A4U A6G C13U G33A", "self-cleavage": 0.03}
{"variant": "C3U C23A G27A G44U", "self-cleavage": 0.36}
{"variant": "G7A C8U U9A A16U G19A", "self-cleavage": 0.09}
{"variant": "G2A U34C A41C", "self-cleavage": 0.4}
{"variant": "G1U A24U C42A", "self-cleavage": 0.04}
{"variant": "C3G C8A A24U U34C", "self-cleavage": 0.09}
{"variant": "C15U G17A C23U A26C", "self-cleavage": 0.03}
{"variant": "U9G C18U U38C", "self-cleavage": 0.02}
{"variant": "G5C G27U C37U G40A C42U", "self-cleavage": 0.01}
{"variant": "G5A C10U G17C G21C G40C", "self-cleavage": 0.02}
{"variant": "C8U A11G C15A G27U G40A", "self-cleavage": 0.02}
{"variant": "A14C A25G G35A", "self-cleavage": 0.04}
